In PubChem BioAssay AID1240 (Sanford-Burnham Center for Chemical Genomics, 2008):
Screen size: about 50,000 compounds; about 800 (1.6%) showed an effect of 50% or more. Some of the results follow.

Each molecule was assayed against Bcl-2-like protein 10 (Homo sapiens) (UniProt Q9HD36) (assay: TR3 peptide-Bcl-B binding displacers, biochemical primary FP assay, phenotype converters (AID 1240;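 note: 0% = Bcl-B with tracer peptide and DMSO and 100% = tracer peptide lacking Bcl-B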)). Conditions: GST-Bcl-B / FITC-TR3 peptide fluorescence polarization; stronger effect = higher value; compound at 3.75 mg/L.
Sequence of UniProt Q9HD36 (Q9HD36 whole entry, looked up): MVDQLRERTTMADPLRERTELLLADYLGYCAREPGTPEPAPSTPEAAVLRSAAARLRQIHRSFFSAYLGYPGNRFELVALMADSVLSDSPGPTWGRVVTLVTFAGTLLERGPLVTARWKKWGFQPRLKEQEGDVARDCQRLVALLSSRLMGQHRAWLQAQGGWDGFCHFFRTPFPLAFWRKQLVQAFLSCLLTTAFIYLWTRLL

SMILES | displacement
CC(C)(O)C#Cc1ccc(C(=O)N2CCN(C/C=C/c3ccccc3)CC2)cc1 | -5.1%
CC(C)(C)c1ccc(C(=O)NNC(=O)C(=O)N2CCCCC2)cc1 | -7%
O=[N+]([O-])c1ccccc1OCCCCCCNCCO | 0.3%
Cc1onc(-c2ccccc2Cl)c1C(=O)NCCNc1ccc([N+](=O)[O-])cc1Cl | -2.3%
OCCN(CCO)c1nc2ccccc2[nH]1 | 1.5%
COCCNC(=O)CN(c1ccc(C(C)C)cc1)S(=O)(=O)c1ccccc1 | -7.4%
CC(C)(C)OC(=O)NC(Cc1c[nH]c2ccccc12)C(=O)NCc1ccccc1 (stereo not given) | -5.4%
CCOc1ccc(N2C(=O)CC(Nc3ccc(N4CCCCC4)cc3)C2=O)cc1 (stereo not given) | 6.1%
CC1(C)CC(=O)C(C2(O)C(=O)Nc3ccc(Br)cc32)CO1 (stereo not given) | -12.2%
CN(C)c1nc(N(C)C)nc(N2CC(=O)N(N)C2=N)n1 | 4.5%
CC(C)(C)c1cc(CO)c(O)c(C(C)(C)C)c1 | -11.3%
Cc1nnc(N/N=C\c2c(Cl)cccc2Cl)[nH]c1=O | -12.3%
CC(=O)c1ccc2c(c1)C1C=CCC1C(c1ccc(Cl)cc1)N2 (stereo not given) | 7.3%
CC1CCCN(C(=O)c2ccc(Cl)cc2)C1 (stereo not given) | 5.2%
COc1ccc(-c2cn3cc(C)ccc3n2)cc1Br | 11.7%
COc1ccc(S(=O)(=O)Nc2ccc(C)cn2)cc1 | 7.4%
O=C(c1cccc(Cl)c1)N1N=C(c2ccc(Cl)cc2)CC1(O)C(F)(F)F (stereo not given) | 0.8%
Cc1ccc(OCC(=O)NNC(=O)c2ccco2)c(Br)c1 | -7.7%
Cc1ccc(-c2nc(N/N=C/c3ccccc3O)c3ccccc3n2)cc1 | 76.2%
Cc1cc2nc(-c3cc(NC(=S)NC(=O)c4ccccc4Cl)ccc3Cl)oc2cc1C | -1.9%
Cc1ccc(/C(O)=C2\C(=O)C(=O)N(CCCC(=O)O)C2c2ccccc2Cl)cc1 (stereo not given) | 3%
COc1ccc(-c2nc(-c3ccc(C)cc3)no2)cc1 | 0.1%
CC(=O)Nc1n[nH]c(-c2ccc(C)cc2)c1C | 10.8%
CCOC(=O)c1c(C)n(C)c2ccc(O)c(CN(CC)CC)c12 | 13.5%

SMILES | displacement
CC(C)c1ccccc1NC(=O)C(c1ccccc1)c1ccccc1 | -4.6%
O=C(Nc1ccc(NC(=S)NC(=O)c2ccco2)cc1)c1ccc(Br)cc1 | 20.1%
COc1ccc(-c2csc(N3C(=O)c4ccc(OC)c(OC)c4C3=O)n2)cc1 | -1.9%
Cc1ccc(/C=C/C(=O)Nc2cccc(Cl)c2C)o1 | 7.8%
CN(C)c1ccc(NC(=O)N2CCOCC2)cc1 | 4.1%
Cc1cc(C(=O)Nc2ccc(C(=O)O)cc2)c(-c2ccccc2)o1 | 6.6%
CCOc1ccc(C=Nc2cccc3ncccc23)cc1 | -7.1%
O=C(O)c1ccccc1NC1=C(Cl)C(=O)N(c2ccc(Cl)cc2)C1=O | 3.8%
Cc1cc(C=O)c(C)n1-c1ccc(Cl)c(Cl)c1 | -12%
Cc1ccc(C(=O)Nc2ccccc2C(=O)Nc2ccccn2)cc1 | -4.3%
CC(=O)Oc1ccc(C(=O)N2c3ccccc3Sc3ccccc32)cc1 | -7.2%
CCCCOc1ccc(NC(=O)C2CC(=O)N(c3ccccc3)C2)cc1 (stereo not given) | -5%
O=C(NC(=S)Nc1ccc2ccccc2c1)c1ccccc1Cl | 3.4%
Cc1c(NC(=O)C(Sc2ccccc2)c2ccccc2)c(=O)n(-c2ccccc2)n1C (stereo not given) | 0.1%
O=C(O)CC1S/C(=N/N=C/c2ccccc2O)N(c2ccc(O)cc2)C1=O (stereo not given) | 15.4%
CCOc1ccc(N2C(=O)/C(=C/c3cccs3)SC2=S)cc1 | -3.8%
COCCN1C(=O)C(=O)/C(=C(/O)c2ccccc2)C1c1cccc(OC)c1 (stereo not given) | -10.3%
O=C(NCCc1ccccc1)c1nn2c(c1Br)NC(c1ccccc1)CC2C(F)(F)F (stereo not given) | 11.9%
Cc1cc(N2C(=O)c3ccc(Oc4ccc([N+](=O)[O-])cc4)cc3C2=O)no1 | 12.4%
Cc1ccc(C(=O)Nc2ccc3oc(-c4ccc(F)cc4Cl)nc3c2)cc1[N+](=O)[O-] | 12%
O=C1N/C(=N/N=C/c2ccco2)SC1Cc1ccc(F)cc1 (stereo not given) | -12.5%
N#Cc1c(/N=C\c2ccc(N3CCCCC3)c([N+](=O)[O-])c2)sc2c1CCCC2 | -5.3%
O=c1[nH]c(SCc2ccccc2)nnc1-c1ccccc1 | -3.8%
Cc1ccsc1C=NN1CCN(Cc2ccccc2)CC1 | -4%

SMILES | displacement
O=C(Nc1cccc([N+](=O)[O-])c1)c1ccc(Br)c(S(=O)(=O)NC2CCCCC2)c1 | -15.6%
COc1cc2nc(-c3ccc4c(c3)C(=O)N(c3ccccc3)C4=O)oc(=O)c2cc1OC | -7%
COc1cc(/C=C2\Sc3ccccc3C2=O)cc(OC)c1O | -14.6%
NC(=O)c1ccccc1NC(=O)CCCCC(=O)Nc1ccccc1C(N)=O | -13.4%
COc1ccc(C2NC(c3ccc(OC)cc3)C(c3ccccc3)C(=O)C2c2ccccc2)cc1 (stereo not given) | 14.6%
Cc1ccc(C(=O)O)cc1N1C(=O)C2C3C=CC(C3)C2C1=O (stereo not given) | 11.8%
COc1ccc(OC)c(C2NC(=O)NC(C)=C2C(=O)Nc2ccccc2C)c1 (stereo not given) | 11.9%
C/C(=N\N=C1\NC(=O)C(CC(=O)Nc2ccc(C)c(Cl)c2)S1)c1ccc([N+](=O)[O-])cc1 (stereo not given) | -3.9%
COc1ccc(C(=O)CC(=O)c2ccccc2O)cc1OC | 11%
Cc1cc(C)c(NC(=O)Cc2ccccc2[N+](=O)[O-])c(C)c1 | 11.1%
CC(=O)c1cccc(NC(=O)c2cnn3c(C(F)(F)F)cc(-c4cccs4)nc23)c1 | 3.1%
CCCc1nnc(NC(=O)CSc2ncn[nH]2)s1 | 15.3%
O=S(=O)(Nc1ccc(Br)cn1)c1ccc2ccccc2c1 | 7%
Cc1ccccc1NC1CC(C)N(C(=O)c2ccccc2)c2c(C)cccc21 (stereo not given) | -0.9%
CCC(=O)Nc1nc2ccccc2n1Cc1ccc(Cl)cc1 | -23%
O=[N+]([O-])c1cn(Cc2ccc(F)cc2)cn1 | 1.7%
CCOC(=O)CNC(=O)c1cc(OCC)c(OCC)c(OCC)c1 | 3.3%
O=C(CC1S/C(=N\N=C\c2ccco2)NC1=O)Nc1ccc(C(=O)O)cc1 (stereo not given) | -0.3%
CCOc1ccc(C(NC(=O)Cc2cc(OC)c(OC)cc2Br)c2ccc(OC)cc2)cc1 (stereo not given) | -13.1%
COc1ccc(-c2cc(C(=O)Nc3ccc(F)c([N+](=O)[O-])c3)c3ccccc3n2)cc1OC | 6.6%
CCc1ccccc1NC(=O)C(=O)NCCCO | -12.4%
O=C(Nc1nnc(Cc2ccc(Cl)cc2)s1)c1ccccc1F | 12.1%
